The campaign covered roughly 150,000 compounds. About 540 (0.36%) showed an effect of 50% or more. Some of the results follow.
system: Plasmodium falciparum; assay: Primary screen in NF54 nanoGlo assay, in single point, at 2uM, 72h; a lower Z score goes with more inhibition; format: functional, Erythrocyte; conditions: timepoint 72 hour

| Structure (SMILES) | % Inhibition [%] | Z score |
| --- | --- | --- |
| Cc1cccc(NC(=O)Nc2cccc3c2N(Cc2cc(=O)n(C)c(=O)n2C)CCC3)c1 | 4 | -0.59 |
| CCCNC(=O)C(C)N1CC(C)CC(C)C1 (stereo not drawn) | -11 | 1.57 |
| COC(=O)c1c(F)cc(C#N)cc1N[C@H](CO)Cc1ccccc1 | -4 | 0.58 |
| O=C(NC1CC1)C1(F)CCN(S(=O)(=O)c2cccnc2)CC1 | -13 | 1.62 |
| C[C@@H](CO)NC(=O)Nc1cccc(Cl)c1 | 29 | -3.86 |
| Cc1cccc(OC(=O)c2cnn(C)c2)c1F | -11 | 1.09 |
| O=C(c1cnc2nccnc2c1)N1CC[C@H]1C1CCCC1 | -5 | 0.85 |
| Cc1ccc(Cl)c2ccc(NC(=O)CCNC(N)=O)nc12 | 38 | -5.43 |
| CCN1CCN(c2c(CN(CCOC)C(=O)CCc3ccccc3)c(C)nn2-c2cccc(F)c2)CC1 | -9 | 1.23 |
| O=C(NCCOc1ccccc1F)c1onc2c1CCCC2 | 3 | -0.5 |
| CC[C@H]1CN(c2nnc(C(=O)NCc3ccc(Cl)cc3)n2CC)CCO1 | -4 | 0.78 |
| Cc1cn(C)nc1CNCc1cn2ccsc2n1 | -4 | 0.74 |
| Cc1cc(CNC(=O)N2CCNC(=O)[C@@H]2C)ccc1Cl | -14 | 1.59 |
| CC[C@H]1c2cccn2CCN1C(=O)c1cn2cc(Cl)cnc2n1 | -21 | 2.91 |
| Fc1ccccc1CCN1CCC[C@H](c2nnc3ccccn23)C1 | -11 | 1.35 |
| NC[C@H]1Cc2cc(F)cc(-c3cnc4ccccc4c3)c2O1 | 3 | -0.65 |
| Nc1c2c(-c3ccccc3F)nc(N3CCN(Cc4ccc(Cl)cc4)CC3)nc2nn1-c1ccc(Cl)c(Cl)c1 | -13 | 1.53 |
| COc1cc(C#N)ccc1O[C@@H](C)c1nnc(-c2cccs2)o1 | -6 | 0.91 |
| O=C(Nc1nc2c(s1)CN(Cc1ccccc1)CC2)C1=NN(c2ccccc2)C(=O)CC1 | 34 | -3.45 |
| Cc1cccnc1C(=O)NCCn1cncn1 | -5 | 0.54 |
| CCC=C(C)C(=O)NCCc1ccccc1OC | -8 | 0.87 |
| CC[C@H](NC(=O)c1cccc(-n2cnnc2)n1)c1ncnn1CC | -3 | 0.44 |
| CN1CCN(C(=O)c2cccc(-c3ccc4cc[nH]c4c3)c2)C[C@@H]1CCO | 0 | 0.05 |
| CN(Cc1cnccn1)C(=O)c1ccccc1-c1ccccc1 | 2 | -0.35 |

Source: ChEMBL document CHEMBL4888484, “Replenishing the malaria drug discovery pipeline: Screening and hit evaluation of the MMV Hit Generation Library 1 (HGL1) against asexual blood stage Plasmodium falciparum ,using a nano luciferase reporter read-out” (2022)
